Assay results: article PMC7968925
No constants are given. Whether binding was seen depends on the method and setting. In cells and extracts the contact can be indirect. Some binding calls cover weakened binding; strength is not graded here. Where a sequence is shown, tags or fusion partners need not be part of it. Values belong to the molecule of their own block, whether it stands above or below them.

Sequences of proteins named here, by UniProt entry; tags and fusion partners are left off.
UniProt Q09XV5: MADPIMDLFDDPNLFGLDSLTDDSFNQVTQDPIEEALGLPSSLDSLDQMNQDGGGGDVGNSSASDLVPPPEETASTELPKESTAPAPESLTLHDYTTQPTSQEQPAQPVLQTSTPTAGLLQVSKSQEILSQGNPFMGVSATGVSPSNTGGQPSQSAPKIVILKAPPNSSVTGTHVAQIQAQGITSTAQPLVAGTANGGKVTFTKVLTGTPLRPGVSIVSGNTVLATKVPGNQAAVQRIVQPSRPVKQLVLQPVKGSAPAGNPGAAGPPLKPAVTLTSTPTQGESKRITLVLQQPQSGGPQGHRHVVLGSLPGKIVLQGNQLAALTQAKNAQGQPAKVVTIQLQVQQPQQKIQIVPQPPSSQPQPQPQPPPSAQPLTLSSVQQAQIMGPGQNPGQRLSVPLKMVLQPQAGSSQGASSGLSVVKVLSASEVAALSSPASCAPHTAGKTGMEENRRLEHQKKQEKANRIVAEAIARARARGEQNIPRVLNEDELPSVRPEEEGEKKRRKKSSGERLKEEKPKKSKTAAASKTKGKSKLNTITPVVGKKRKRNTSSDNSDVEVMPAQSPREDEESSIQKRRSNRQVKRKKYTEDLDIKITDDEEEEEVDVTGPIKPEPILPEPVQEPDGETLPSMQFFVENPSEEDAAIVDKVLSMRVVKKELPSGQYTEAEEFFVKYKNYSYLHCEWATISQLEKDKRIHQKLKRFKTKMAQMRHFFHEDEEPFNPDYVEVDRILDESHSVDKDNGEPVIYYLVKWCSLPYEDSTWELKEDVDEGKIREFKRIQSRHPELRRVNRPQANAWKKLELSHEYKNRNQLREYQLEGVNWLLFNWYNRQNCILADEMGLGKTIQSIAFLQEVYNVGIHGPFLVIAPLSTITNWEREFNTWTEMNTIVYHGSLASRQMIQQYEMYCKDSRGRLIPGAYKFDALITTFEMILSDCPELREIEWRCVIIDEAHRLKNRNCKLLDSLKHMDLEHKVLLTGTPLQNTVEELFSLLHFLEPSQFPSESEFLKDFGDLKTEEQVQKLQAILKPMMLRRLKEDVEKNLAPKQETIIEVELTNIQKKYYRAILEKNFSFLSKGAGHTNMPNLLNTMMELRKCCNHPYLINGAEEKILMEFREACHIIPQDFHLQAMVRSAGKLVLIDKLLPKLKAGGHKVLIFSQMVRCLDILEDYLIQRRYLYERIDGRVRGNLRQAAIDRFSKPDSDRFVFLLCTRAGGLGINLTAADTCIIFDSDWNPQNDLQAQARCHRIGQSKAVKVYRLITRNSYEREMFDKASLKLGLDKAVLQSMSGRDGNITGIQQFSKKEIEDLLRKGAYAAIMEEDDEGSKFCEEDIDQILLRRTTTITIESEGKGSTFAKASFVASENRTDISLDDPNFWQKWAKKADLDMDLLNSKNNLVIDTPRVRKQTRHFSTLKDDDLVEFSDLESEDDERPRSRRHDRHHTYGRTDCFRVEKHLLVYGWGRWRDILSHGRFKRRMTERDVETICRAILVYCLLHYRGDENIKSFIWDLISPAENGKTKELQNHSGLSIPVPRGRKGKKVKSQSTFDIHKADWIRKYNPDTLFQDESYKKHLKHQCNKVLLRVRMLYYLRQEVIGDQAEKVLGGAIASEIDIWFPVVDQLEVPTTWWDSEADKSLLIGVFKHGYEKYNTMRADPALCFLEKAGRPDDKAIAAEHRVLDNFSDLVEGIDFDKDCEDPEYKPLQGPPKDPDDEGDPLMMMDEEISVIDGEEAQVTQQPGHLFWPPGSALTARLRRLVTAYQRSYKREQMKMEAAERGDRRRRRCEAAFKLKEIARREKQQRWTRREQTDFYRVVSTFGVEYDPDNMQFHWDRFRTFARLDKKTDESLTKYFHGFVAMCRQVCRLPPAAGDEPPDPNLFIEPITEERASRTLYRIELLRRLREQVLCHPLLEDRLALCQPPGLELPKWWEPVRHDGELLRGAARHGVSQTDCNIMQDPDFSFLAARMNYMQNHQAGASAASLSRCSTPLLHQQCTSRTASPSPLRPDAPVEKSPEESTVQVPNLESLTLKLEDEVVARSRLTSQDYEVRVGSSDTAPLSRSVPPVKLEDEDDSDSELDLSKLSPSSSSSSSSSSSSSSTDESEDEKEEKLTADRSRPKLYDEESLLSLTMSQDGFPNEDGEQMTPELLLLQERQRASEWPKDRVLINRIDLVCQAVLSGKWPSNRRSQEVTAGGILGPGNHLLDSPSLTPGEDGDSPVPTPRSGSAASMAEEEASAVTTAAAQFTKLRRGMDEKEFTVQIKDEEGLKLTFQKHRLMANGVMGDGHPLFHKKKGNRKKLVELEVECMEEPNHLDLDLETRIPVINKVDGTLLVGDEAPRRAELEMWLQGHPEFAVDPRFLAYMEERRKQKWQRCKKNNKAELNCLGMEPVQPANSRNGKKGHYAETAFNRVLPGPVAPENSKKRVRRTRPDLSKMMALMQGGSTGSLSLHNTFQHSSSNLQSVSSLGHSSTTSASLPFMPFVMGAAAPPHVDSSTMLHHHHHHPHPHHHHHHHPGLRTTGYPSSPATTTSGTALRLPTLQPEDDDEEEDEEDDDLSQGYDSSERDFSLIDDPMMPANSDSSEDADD
UniProt P63013: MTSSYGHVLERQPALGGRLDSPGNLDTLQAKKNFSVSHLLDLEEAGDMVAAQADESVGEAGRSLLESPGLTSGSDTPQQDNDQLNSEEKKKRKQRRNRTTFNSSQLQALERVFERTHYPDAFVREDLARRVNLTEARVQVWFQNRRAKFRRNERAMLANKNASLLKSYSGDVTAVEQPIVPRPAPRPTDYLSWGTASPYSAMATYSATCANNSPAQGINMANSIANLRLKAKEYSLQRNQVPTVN
UniProt Q06348: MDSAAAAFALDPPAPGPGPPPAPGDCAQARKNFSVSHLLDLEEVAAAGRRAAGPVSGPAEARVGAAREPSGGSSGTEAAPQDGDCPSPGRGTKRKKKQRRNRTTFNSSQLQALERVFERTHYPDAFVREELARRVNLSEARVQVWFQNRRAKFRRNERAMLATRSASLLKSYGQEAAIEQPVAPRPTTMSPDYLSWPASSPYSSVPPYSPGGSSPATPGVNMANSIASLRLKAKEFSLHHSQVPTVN
UniProt O54941: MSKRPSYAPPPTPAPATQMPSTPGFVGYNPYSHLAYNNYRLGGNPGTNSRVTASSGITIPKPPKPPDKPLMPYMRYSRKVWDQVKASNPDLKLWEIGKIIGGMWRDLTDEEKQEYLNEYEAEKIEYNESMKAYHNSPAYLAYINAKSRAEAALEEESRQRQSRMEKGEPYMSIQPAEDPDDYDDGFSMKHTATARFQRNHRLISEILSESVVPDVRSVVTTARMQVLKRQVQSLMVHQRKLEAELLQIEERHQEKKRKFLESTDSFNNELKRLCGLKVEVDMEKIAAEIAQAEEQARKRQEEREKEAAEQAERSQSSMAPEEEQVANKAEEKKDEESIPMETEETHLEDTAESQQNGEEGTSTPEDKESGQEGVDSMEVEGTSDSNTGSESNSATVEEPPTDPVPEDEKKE
UniProt P15806: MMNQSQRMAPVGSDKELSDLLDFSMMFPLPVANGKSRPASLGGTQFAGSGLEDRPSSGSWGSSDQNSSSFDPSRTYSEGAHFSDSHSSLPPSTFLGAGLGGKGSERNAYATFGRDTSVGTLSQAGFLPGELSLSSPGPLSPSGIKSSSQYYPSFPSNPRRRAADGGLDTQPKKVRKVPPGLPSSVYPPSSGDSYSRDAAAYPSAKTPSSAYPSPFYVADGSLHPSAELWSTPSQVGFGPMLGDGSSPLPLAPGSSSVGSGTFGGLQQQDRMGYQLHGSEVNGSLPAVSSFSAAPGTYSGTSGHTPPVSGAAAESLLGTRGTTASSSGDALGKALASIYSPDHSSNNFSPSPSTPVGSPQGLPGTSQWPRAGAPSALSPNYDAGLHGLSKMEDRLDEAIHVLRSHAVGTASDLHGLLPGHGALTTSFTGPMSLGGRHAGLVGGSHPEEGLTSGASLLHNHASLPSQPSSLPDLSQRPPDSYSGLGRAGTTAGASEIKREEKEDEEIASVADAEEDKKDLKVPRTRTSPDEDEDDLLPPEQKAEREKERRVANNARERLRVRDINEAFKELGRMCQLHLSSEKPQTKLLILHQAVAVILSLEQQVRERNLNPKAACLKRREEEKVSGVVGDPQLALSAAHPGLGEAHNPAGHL

Experiments:
[1] = target: T1, TWIST1 (pCMV-Twist1-FLAG) (mouse) (UniProt P26687); assay: co-IP; O9-1 cells transfected with TWIST1 (pCMV-Twist1-FLAG) and one HA-tagged partner; cleared lysate with α-TWIST1/α-FLAG antibody (1 μg/mL) 4°C 2 hr, Protein-G agarose; blot α-HA
T1 sequence: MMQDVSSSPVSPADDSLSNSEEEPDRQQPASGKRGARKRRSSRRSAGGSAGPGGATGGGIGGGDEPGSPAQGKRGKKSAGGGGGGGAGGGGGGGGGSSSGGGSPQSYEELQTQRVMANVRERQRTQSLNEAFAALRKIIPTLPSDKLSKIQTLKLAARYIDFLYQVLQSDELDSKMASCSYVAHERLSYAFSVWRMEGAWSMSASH

[2] = target: T2, GST-Twist1 (full-length TWIST1) (mouse) (UniProt P26687); assay: pull-down; GST-TWIST1 constructs on Glutathione Sepharose beads incubated with lysate of cells expressing HA-tagged proteins (benzonase treated), 4°C 4 hr; blot α-HA; only the target purified
T2 sequence: T1 sequence

Molecule: HA-tagged CHD8 (pCMV-Chd8-HA) (from UniProt Q09XV5 1-2582)
- binding [1]: binds

Molecule: HA-tagged PRRX1 (pCMV-Prrx1-HA) (from UniProt P63013 1-245)
- binding [1]: binds

Molecule: HA-tagged PRRX2 (pCMV-Prrx2-HA) (from UniProt Q06348 1-247)
- binding [1]: binds

Now from value to molecule:

- binding [1]: no binding
- binding [2]: no binding
Molecule: HA-tagged SMARCE1 (pCMV-Smarce1-HA) (from UniProt O54941 1-411)

- binding [1]: binds
Molecule: HA-tagged TCF3 (pCMV-Tcf3-HA) (from UniProt P15806 1-651)

- binding [1]: binds
B1: HA-tagged DVL1 (pCMV-Dvl1-HA) (protein, UniProt P51141 1-695)
chain: MAETKIIYHMDEEETPYLVKLPVAPERVTLADFKNVLSNRPVHAYKFFFKSMDQDFGVVKEEIFDDNAKLPCFNGRVVSWLVLAEGAHSDAGSQGTDSHTDLPPPLERTGGIGDSRPPSFHPNVASSRDGMDNETGTESMVSHRRERARRRNRDEAARTNGHPRGDRRRDLGLPPDSASTVLSSELESSSFIDSDEEDNTSRLSSSTEQSTSSRLVRKHKCRRRKQRLRQTDRASSFSSITDSTMSLNIITVTLNMERHHFLGISIVGQSNDRGDGGIYIGSIMKGGAVAADGRIEPGDMLLQVNDVNFENMSNDDAVRVLREIVSQTGPISLTVAKCWDPTPRSYFTIPRADPVRPIDPAAWLSHTAALTGALPRYGTSPCSSAITRTSSSSLTSSVPGAPQLEEAPLTVKSDMSAIVRVMQLPDSGLEIRDRMWLKITIANAVIGADVVDWLYTHVEGFKERREARKYASSMLKHGFLRHTVNKITFSEQCYYVFGDLCSNLASLNLNSGSSGASDQDTLAPLPHPSVPWPLGQGYPYQYPGPPPCFPPAYQDPGFSCGSGSAGSQQSEGSKSSGSTRSSHRTPGREERRATGAGGSGSESDHTVPSGSGSTGWWERPVSQLSRGSSPRSQASAVAPGLPPLHPLTKAYAVVGGPPGGPPVRELAAVPPELTGSRQSFQKAMGNPCEFFVDIM
